# Measured values taken from the supplement of paper PMC8728848.
# Some of the results follow.
# Key:
# Test in all cases: glycan array binding signal (z-score within array); higher = stronger binding
# Conditions in all cases: glycan notation: IUPAC condensed, linker removed
# [1] = molecular target: Neu5Ac(a2-3)Gal(b1-4)GlcNAc(b1-3)[Neu5Ac(a2-3)Gal(b1-4)GlcNAc(b1-6)]GalNAc
# How it was run: (§1)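 From the Consortium for Functional Glycomics database, 3228 arrays were curated, keeping only those whose protein sequence was available. Binding is given as a within-array Z-score averaged across arrays sharing a protein sequence and across linkers. Negative Z-scores can be read as non-binding.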
# [2] = molecular target: Neu5Ac(a2-3)Gal(b1-4)GlcNAc(b1-6)GalNAc
# How it was run: as §1
# [3] = molecular target: Neu5Ac(a2-3)Gal(b1-4)GlcNAc(b1-6)[Gal(b1-3)]GalNAc
# How it was run: as §1
# [4] = molecular target: Neu5Ac(a2-3)Gal(b1-4)GlcNAc(b1-6)[Neu5Ac(a2-3)Gal(b1-3)]GalNAc
# How it was run: as §1
# [5] = molecular target: Neu5Ac(a2-3)Gal(b1-4)GlcNAc6S
# How it was run: as §1
# [6] = molecular target: Neu5Ac(a2-3)Gal(b1-4)[Fuc(a1-3)]GlcNAc
# How it was run: as §1
# [7] = molecular target: Neu5Ac(a2-3)Gal(b1-4)[Fuc(a1-3)]GlcNAc(b1-2)Man
# How it was run: as §1
# [8] = molecular target: Neu5Ac(a2-3)Gal(b1-4)[Fuc(a1-3)]GlcNAc(b1-3)Gal
# How it was run: as §1
# [9] = molecular target: Neu5Ac(a2-3)Gal(b1-4)[Fuc(a1-3)]GlcNAc(b1-3)Gal(b1-4)GlcNAc
# How it was run: as §1
# [10] = molecular target: Neu5Ac(a2-3)Gal(b1-4)[Fuc(a1-3)]GlcNAc(b1-3)Gal(b1-4)[Fuc(a1-3)]GlcNAc(b1-3)Gal(b1-4)[Fuc(a1-3)]GlcNAc
# How it was run: as §1
# [11] = molecular target: Neu5Ac(a2-3)Gal(b1-4)[Fuc(a1-3)]GlcNAc(b1-3)GalNAc
# How it was run: as §1
# [12] = molecular target: Neu5Ac(a2-3)Gal(b1-4)[Fuc(a1-3)]GlcNAc(b1-6)[Gal(b1-3)]GalNAc
# How it was run: as §1
# [13] = molecular target: Neu5Ac(a2-3)Gal(b1-4)[Fuc(a1-3)]GlcNAc(b1-6)[Neu5Ac(a2-3)Gal(b1-3)]GalNAc
# How it was run: as §1
# [14] = molecular target: Neu5Ac(a2-3)Gal(b1-4)[Fuc(a1-3)]GlcNAc6S
# How it was run: as §1
# [15] = molecular target: Neu5Ac(a2-3)Gal6S(b1-4)GlcNAc
# How it was run: as §1
# [16] = molecular target: Neu5Ac(a2-3)Gal6S(b1-4)[Fuc(a1-3)]GlcNAc
# How it was run: as §1
# [17] = molecular target: Neu5Ac(a2-3)GalNAc
# How it was run: as §1
# [18] = molecular target: Neu5Ac(a2-3)GalNAc(b1-4)GlcNAc
# How it was run: as §1
# [19] = molecular target: Neu5Ac(a2-3)[GalNAc(b1-4)]Gal(b1-4)Glc
# How it was run: as §1
# [20] = molecular target: Neu5Ac(a2-3)[GalNAc(b1-4)]Gal(b1-4)GlcNAc
# How it was run: as §1
# [21] = molecular target: Neu5Ac(a2-3)[GalNAc(b1-4)]Gal(b1-4)GlcNAc(b1-3)GalNAc
# How it was run: as §1
# [22] = molecular target: Neu5Ac(a2-3)[Neu5Ac(a2-6)]GalNAc
# How it was run: as §1
# [23] = molecular target: Neu5Ac(a2-6)Gal
# How it was run: as §1
# [24] = molecular target: Neu5Ac(a2-6)Gal(b1-3)GlcNAc(b1-3)[Gal(b1-4)GlcNAc(b1-6)]Gal(b1-4)Glc
# How it was run: as §1
# [25] = molecular target: Neu5Ac(a2-6)Gal(b1-4)Glc
# How it was run: as §1
# [26] = molecular target: Neu5Ac(a2-6)Gal(b1-4)GlcNAc
# How it was run: as §1
# [27] = molecular target: Neu5Ac(a2-6)Gal(b1-4)GlcNAc(b1-2)Man
# How it was run: as §1
# [28] = molecular target: Neu5Ac(a2-6)Gal(b1-4)GlcNAc(b1-2)Man(a1-3)Man(b1-4)GlcNAc(b1-4)GlcNAc
# How it was run: as §1
# [29] = molecular target: Neu5Ac(a2-6)Gal(b1-4)GlcNAc(b1-2)Man(a1-3)[Gal(b1-4)GlcNAc(b1-2)Man(a1-6)]Man(b1-4)GlcNAc(b1-4)GlcNAc
# How it was run: as §1
# [30] = molecular target: Neu5Ac(a2-6)Gal(b1-4)GlcNAc(b1-2)Man(a1-3)[GlcNAc(b1-2)Man(a1-6)]Man(b1-4)GlcNAc(b1-4)GlcNAc
# How it was run: as §1
# [31] = molecular target: Neu5Ac(a2-6)Gal(b1-4)GlcNAc(b1-2)Man(a1-3)[GlcNAc(b1-4)][Neu5Ac(a2-6)Gal(b1-4)GlcNAc(b1-2)Man(a1-6)]Man(b1-4)GlcNAc(b1-4)GlcNAc
# How it was run: as §1
# [32] = molecular target: Neu5Ac(a2-6)Gal(b1-4)GlcNAc(b1-2)Man(a1-3)[Man(a1-6)]Man(b1-4)GlcNAc(b1-4)GlcNAc
# How it was run: as §1
# [33] = molecular target: Neu5Ac(a2-6)Gal(b1-4)GlcNAc(b1-2)Man(a1-3)[Neu5Ac(a2-3)Gal(b1-4)GlcNAc(b1-2)Man(a1-6)]Man(b1-4)GlcNAc(b1-4)GlcNAc
# How it was run: as §1
# [34] = molecular target: Neu5Ac(a2-6)Gal(b1-4)GlcNAc(b1-2)Man(a1-3)[Neu5Ac(a2-6)Gal(b1-4)GlcNAc(b1-2)Man(a1-6)]Man(b1-4)GlcNAc(b1-4)GlcNAc
# How it was run: as §1
# [35] = molecular target: Neu5Ac(a2-6)Gal(b1-4)GlcNAc(b1-2)Man(a1-3)[Neu5Ac(a2-6)Gal(b1-4)GlcNAc(b1-2)Man(a1-6)]Man(b1-4)GlcNAc(b1-4)[Fuc(a1-6)]GlcNAc
# How it was run: as §1
# [36] = molecular target: Neu5Ac(a2-6)Gal(b1-4)GlcNAc(b1-2)Man(a1-6)Man(b1-4)GlcNAc(b1-4)GlcNAc
# How it was run: as §1
# [37] = molecular target: Neu5Ac(a2-6)Gal(b1-4)GlcNAc(b1-2)Man(a1-6)[Gal(b1-4)GlcNAc(b1-2)Man(a1-3)]Man(b1-4)GlcNAc(b1-4)GlcNAc
# How it was run: as §1
# [38] = molecular target: Neu5Ac(a2-6)Gal(b1-4)GlcNAc(b1-2)Man(a1-6)[GlcNAc(b1-2)Man(a1-3)]Man(b1-4)GlcNAc(b1-4)GlcNAc
# How it was run: as §1
# [39] = molecular target: Neu5Ac(a2-6)Gal(b1-4)GlcNAc(b1-2)Man(a1-6)[Man(a1-3)]Man(b1-4)GlcNAc(b1-4)GlcNAc
# How it was run: as §1
# [40] = molecular target: Neu5Ac(a2-6)Gal(b1-4)GlcNAc(b1-2)[Neu5Ac(a2-6)Gal(b1-4)GlcNAc(b1-4)]Man(a1-3)[GlcNAc(b1-4)][Neu5Ac(a2-6)Gal(b1-4)GlcNAc(b1-2)[Neu5Ac(a2-6)Gal(b1-4)GlcNAc(b1-6)]Man(a1-6)]Man(b1-4)GlcNAc(b1-4)GlcNAc
# How it was run: as §1
# [41] = molecular target: Neu5Ac(a2-6)Gal(b1-4)GlcNAc(b1-2)[Neu5Ac(a2-6)Gal(b1-4)GlcNAc(b1-4)]Man(a1-3)[GlcNAc(b1-4)][Neu5Ac(a2-6)Gal(b1-4)GlcNAc(b1-4)Man(a1-6)]Man(b1-4)GlcNAc(b1-4)GlcNAc
# How it was run: as §1
# [42] = molecular target: Neu5Ac(a2-6)Gal(b1-4)GlcNAc(b1-2)[Neu5Ac(a2-6)Gal(b1-4)GlcNAc(b1-6)]Man(a1-6)[Neu5Ac(a2-6)Gal(b1-4)GlcNAc(b1-2)Man(a1-3)][GlcNAc(b1-4)]Man(b1-4)GlcNAc(b1-4)GlcNAc
# How it was run: as §1
# [43] = molecular target: Neu5Ac(a2-6)Gal(b1-4)GlcNAc(b1-3)Gal(b1-3)GlcNAc
# How it was run: as §1
# [44] = molecular target: Neu5Ac(a2-6)Gal(b1-4)GlcNAc(b1-3)Gal(b1-4)GlcNAc
# How it was run: as §1
# [45] = molecular target: Neu5Ac(a2-6)Gal(b1-4)GlcNAc(b1-3)Gal(b1-4)GlcNAc(b1-2)Man(a1-3)[Neu5Ac(a2-6)Gal(b1-4)GlcNAc(b1-3)Gal(b1-4)GlcNAc(b1-2)Man(a1-6)]GalNAc
# How it was run: as §1
# [46] = molecular target: Neu5Ac(a2-6)Gal(b1-4)GlcNAc(b1-3)Gal(b1-4)GlcNAc(b1-3)Gal(b1-4)GlcNAc
# How it was run: as §1
binder,measurement,setting,value
"CC1G-10077 (Coprinopsis cinerea), A8NDT7 (protein) MALNEGVYWIRNSRFTNKVLDLDAANVAKGTSILDFNEHGTFNENHNQLWIVERFQSRDTYLIRSVHSNLVLDLSQGLSANGTPILCWTQHGGTNQQWRIEWVKDDNKTPLYRIVSVATGTAISHNEDDSSAYTVAWSVDDGPKQLWSFDPFVTPLLYRLRVKSTSRVLDLAAASADNGTLALAWEQHTAITKRNQLWWLPYRSGAEEYTIQCLETSTVADLSGGNSGNGTPIYGWQSHGGRNQQWKFEPTSDSGDYYHIKNVEGGSVMDAYMNDSQKRVGGWSNNGGDNQKWLLDPLPSPGPGWVLIQNGGTGKFLCSTPSGDIGTADGPETVYDYSVQWRFIQREYTGVYHVVNRATGAYLRQIGTSMPSIGLAEENDDELKDWWMLETYDNSEIGLASIISRWTGNVLDHYGGVSVQALDNNTENSYRSWAIIPARDWLTSFSLVNGQGGLCLAAQYAREETRLSTTANVNDFHAQWVFRKPSGSSGYTIQNKYNNHYVGGTSARWELVVCCNKYFGIRNTSTQKYLAIEDGQVTFQDQDMTDRKQCWELCSGRATDTSGNDYDLIYMDDDLLEVMIPWVGDKQGDLKHYIEKRATKKPPKDKGGWQLPAAGLIKKPKFNDIRQLLQELIEQWEWDVVNEEREQIQTLVSIDEAEARRLLGRRPHPDIVAAYQRSRSSTLFRIDRQGYFNIAGDRYVNIQGQYGDDSYFHIALPVGVRFGREQIRRFLRDSLDRSTSVTITPTTCKPPSGGPDYNRDPDSDGDNSWIKWTIAVVGTSAIKHSEL",glycan array binding signal (z-score),[1],-0.45
same,glycan array binding signal (z-score),[2],0.729
same,glycan array binding signal (z-score),[3],-0.387
same,glycan array binding signal (z-score),[4],-0.467
same,glycan array binding signal (z-score),[5],-0.457
same,glycan array binding signal (z-score),[6],-0.487
same,glycan array binding signal (z-score),[7],-0.454
same,glycan array binding signal (z-score),[8],-0.392
same,glycan array binding signal (z-score),[9],-0.421
same,glycan array binding signal (z-score),[10],-0.467
same,glycan array binding signal (z-score),[11],-0.382
same,glycan array binding signal (z-score),[12],-0.37
same,glycan array binding signal (z-score),[13],-0.48
same,glycan array binding signal (z-score),[14],-0.468
same,glycan array binding signal (z-score),[15],-0.369
same,glycan array binding signal (z-score),[16],-0.511
same,glycan array binding signal (z-score),[17],-0.484
same,glycan array binding signal (z-score),[18],-0.402
same,glycan array binding signal (z-score),[19],-0.393
same,glycan array binding signal (z-score),[20],-0.445
same,glycan array binding signal (z-score),[21],-0.444
same,glycan array binding signal (z-score),[22],-0.407
same,glycan array binding signal (z-score),[23],-0.42
same,glycan array binding signal (z-score),[24],0.306
same,glycan array binding signal (z-score),[25],-0.474
same,glycan array binding signal (z-score),[26],-0.481
same,glycan array binding signal (z-score),[27],-0.535
same,glycan array binding signal (z-score),[28],-0.461
same,glycan array binding signal (z-score),[29],-0.186
same,glycan array binding signal (z-score),[30],-0.505
same,glycan array binding signal (z-score),[31],-0.487
same,glycan array binding signal (z-score),[32],-0.4
same,glycan array binding signal (z-score),[33],-0.447
same,glycan array binding signal (z-score),[34],-0.326
same,glycan array binding signal (z-score),[35],-0.509
same,glycan array binding signal (z-score),[36],-0.428
same,glycan array binding signal (z-score),[37],0.398
same,glycan array binding signal (z-score),[38],-0.37
same,glycan array binding signal (z-score),[39],-0.503
same,glycan array binding signal (z-score),[40],-2.17
same,glycan array binding signal (z-score),[41],-1.09
same,glycan array binding signal (z-score),[42],-0.462
same,glycan array binding signal (z-score),[43],-0.459
same,glycan array binding signal (z-score),[44],-0.463
same,glycan array binding signal (z-score),[45],-0.105
same,glycan array binding signal (z-score),[46],-0.379
